# Results as given in the supplement of paper PMC11417369.
# ± gives the standard deviation of the averaged measurements. The list shows a part of the results.
# Test system: PfAP2-G AP2 domain (GST-tagged)
# Assay: gcPBM binding intensity (ln(normalized median fluorescence intensity)); higher = stronger DNA binding
# Procedure, shortened: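 For binding intensity, the highest Masliner-normalised natural-log median intensity across replicate spots of either probe orientation was taken. Protein bound to the array was stained with Alexa488 anti-GST antibody and scanned at 488 nm. The protein, GST-tagged P. falciparum DNA-binding domains from E. coli at about 25 μg on average, had been applied for 1 h to an Agilent 4 × 180k array of primer-extended double-stranded 36-bp intergenic genomic probes and negative controls.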
row,Sequence,gcPBM binding intensity (ln)
1,TTTATTAAACTTGACACACACACACCCACATATATA [CACACA_site760],10.6 ± 0.59
2,ATATTATATAGAAACACACATACACATGTAAATATA [CACACA_site2037],10.12 ± 0.049
3,AGTAACAATTATTATGCATGTACAAATAATCATTTT [TGCATGCA_site867],10.7 ± 0.49
4,AATGTGCTCGCTATTACACACTCATTGGGATAAAAT [CACACA_site8627],10.4 ± 0.32
5,TAAAAACCAAAGAAAAGTACAAATTTAAATGAGAAA [XGTACX_site7450],11.1 ± 0.56
6,TTTACACCGTAATATGCATGTGTGTATATATTTTTG [TGCATGCA_site186],9.97 ± 0.13
7,ATAAGCCATTTTTGTGGTACATAAAATAGATATATA [XGTACX_site5175],11.3 ± 0.75
8,TATACACGCGGACACACACACACACGCAAAAAAAAA [CACACA_site6377],11.5 ± 1
9,CATCTTAGTTTGAGTTGTACAATATTTATAAAAATA [XGTACX_site693],11.4 ± 0.81
10,GCACAATTTACACTTAAACACACAAAAAAAAATTAT [CACACA_site8642],10.05 ± 0.099
11,AAATTTATTTATTATAGTACACTTAATACTACCCAA [XGTACX_site41],11.4 ± 0.73
12,AGCACAGACGGACACACACACACACCCACAGACACA [CACACA_site4358],11.5 ± 0.95
13,ATATATATTTAAAGATGTACATAATGAAATGGTTAT [XGTACX_site4706],11.2 ± 0.71
14,GCAGTATTTCGGAACACACAAACATAAATATGTATT [CACACA_site2316],10.2 ± 0.19
15,ATATATATATATGTATGTACATATTTTTTTTAACAC [XGTACX_site8475],11.4 ± 0.89
16,TTAAAACATAAAAAAAGTACATACAAATATATATAA [XGTACX_site789],11.6 ± 0.94
17,TACAAAATAACTAGCACACATATGTATAAACATATA [CACACA_site5948],10.1 ± 0.17
18,TATGTCAATCAAGCAAGTACATATATATATAAATAT [XGTACX_site7554],11.1 ± 0.84
19,AATTATATTACGAAATGTACATATAATAATGTATAT [XGTACX_site4410],10.9 ± 0.54
20,GCCATTGTACCATCCACACACATATATATATGTATA [CACACA_site2704],10.9 ± 0.53
21,TTCAAAACTTAAAATCGTACAAGACAATTATTATAT [XGTACX_site6626],11.2 ± 1.1
22,TTTGTTAAAAATATATTATGAATAAAAATATATTTT [CACACA_negctrl_site170],9.51 ± 0.085
23,ATATATATAAATAATTGTACTTAAAAAAAAAAAAGG [XGTACX_site6847],11.3 ± 0.9

row,Sequence,gcPBM binding intensity (ln)
1,TGTAGAGCGCAAAGTAGTACTACAAATTATGGAGGG [XGTACX_site3022],11.8 ± 1
2,AACAGCATATCACATTTCTTCAAAAAAAAATAAAAT [CACACA_negctrl_site733],9.96 ± 0.49
3,CTTTTAATATTAAGATGTACTTAGAATTTTTTTTTT [XGTACX_site8338],11.1 ± 0.67
4,TTTTTTGTTATTGGCGTGCACATATCCATTTATAGT,10.6 ± 0.33
5,CATATATATTTATGTACACACATTAATAAAAAAAAA [CACACA_site5741],11.5 ± 0.97
6,CCAAGAAACCAAAAAAGTACATACATGGTTATAATT [XGTACX_site4249],11.4 ± 0.9
7,ACAATATGTATATATATATATATGCAAATGTATAAA [CACACA_negctrl_site53],9.855 ± 0.078
8,TAAACACCCATATAAACACACATACATACATACATA [CACACA_site5383],10 ± 0.22
9,GATTAATTTAAAAAATGTACATTTTATTGTATAACC [XGTACX_site5539],11 ± 0.64
10,ATATTAAATTCAATTTAATGTTTTGTGAATTTTAGA [CACACA_negctrl_site1421],9.88 ± 0.43
11,TTAAATGGAAAAATATGTACATATATATATATATTT [XGTACX_site2286],11.2 ± 0.7
12,TGAACTCATAGATTTAGTACATATATAAAAAAATTC [XGTACX_site1692],11.1 ± 0.54
13,TTAATTTTTTTTTCTTGTACACACTATTTTATAATT [XGTACX_site8783],11.4 ± 0.91
14,TAGTATTAAATATATACACACATATATACATATAGA [CACACA_site2154],10 ± 0.23
15,GTAATAAAATGACATACATGCATTACAATTATGTAA [TGCATGCA_site220],9.755 ± 0.007
16,TATTATAATACTTATTGTACTTTTAGGTTAATTTAT [XGTACX_site995],11.3 ± 0.76
17,GTTGCACAATGTTACACACACAATATATATCGTTAA [CACACA_site1275],10.16 ± 0.092
18,GTGTACTTTTAAATAGTGCATTTTACAATAATAAAA [GTGCAC_site9653],11.5 ± 1.2
19,GCAGCAGCATTTTCAGTGCATTATTATATTGTTCAT [GTGCAC_site9926],9.76 ± 0.17
20,GGAAACCTTTTTTTTACACACAATATATTAAGACTT [CACACA_site4899],9.86 ± 0.014
21,CCCTTTTTTTTTTAATGTACATATAATTATATATTT [XGTACX_site8568],11.3 ± 0.61
22,AAAGCAAAAGGAAAATAACCAACCCTAATTAACACA [CACACA_negctrl_site530],10.04 ± 0.071
23,AATTGTACGTAGGGGTATAAAAGCTTAAAAATGGGG [CACACA_negctrl_site1392],11.6 ± 0.91

row,Sequence,gcPBM binding intensity (ln)
1,AAATTAGACTATAATACACACATAAAAAAAAAAAAA [CACACA_site6155],9.93 ± 0.35
2,AGATATCTTGTGAAATAAAAAAAATAATTGCTTATA [CACACA_negctrl_site798],9.63 ± 0.17
3,ATATTATATTATTAATGTACATATATATAATTTTAA [XGTACX_site4974],11.2 ± 0.64
4,AAGGCAAACAAACACACACACATATATACCTATATA [CACACA_site5203],10.1 ± 0.2
5,AGAAATGAAATCCAAAAACGAGGAACCAATAACGCA [CACACA_negctrl_site1758],10.29 ± 0.014
6,TCTTATCCATATATTACACACTATATATAGAAATTA [CACACA_site291],10.2 ± 0.31
7,ATATAAACATTTAGTAATCCATATAGGTACTACTGA [CACACA_negctrl_site1249],11.2 ± 0.7
8,AAAAAAAATATATAAACACACATATTTATATACGCA [CACACA_site1631],9.845 ± 0.049
9,TATTTATAGATATATACACACATATACATATTGTTT [CACACA_site7611],9.83 ± 0.16
10,ATATATGCTAATATATGTACTGATTATATCTCTTCA [XGTACX_site7156],10.8 ± 0.59
11,TCCTTCGAAACTAAAATTCATTTAAAATATTGATAT [CACACA_negctrl_site369],9.615 ± 0.021
12,AAAGAAAAAAAAATTACACACATATATTATAGATAT [CACACA_site7495],9.82 ± 0.085
13,TAGGTCCTCATTTTATGTACATAAAGAAATATGATT [XGTACX_site4138],11.5 ± 0.85
14,TACATACATACATACACACACACATATATATATATA [CACACA_site42],10.7 ± 0.4
15,TATATATCTTTATGCACACACAAAGAAAATTTTCCT [CACACA_site7366],10.21 ± 0.099
16,GTTTGAATATATCAGGTGCATTTATAATTCATATGA,9.88 ± 0.13
17,ATTAATTTAATTTGAATTATTTTATTATATTATTAT [XGTACX_negctrl_site10],9.55 ± 0.13
18,ATTTAGAATGTTCCTACACACCAAATTTAAGTGTGC [CACACA_site7161],10.11 ± 0.049
19,TACATACACAGACACACACACATATAAATATAAATA [CACACA_site7641],10.2 ± 0.32
20,TTTTTTTTAGTATGAACACACATATAGATTATAAAA [CACACA_site7391],10.2 ± 0.28
21,TAATTAAATATTTCAGTGCATTATTTTATGATCCAT [GTGCAC_site9456],9.94 ± 0.21
22,AGATGAACTAAAAAGGTGCTAAATATGTGACCACTG [GTGCAC_site9406],11.3 ± 0.82
23,ATAAGAAGAAGAAAAACACACATATGTAAATATATA [CACACA_site3138],9.88 ± 0.13

row,Sequence,gcPBM binding intensity (ln)
1,ATATTATAGATATACACACACACATGCATGCACATA [CACACA_site6203],10.06 ± 0.071
2,CAAAATGAAAGGAAAAGTACATTTAAATGAATAAAT [XGTACX_site8241],11.2 ± 0.7
3,AAATAATTCAAAAAAACACACAAATTACAAAATAAA [CACACA_site269],9.94
4,ACCTAATATTATTAAACATGCACATTTGCATAAATA [TGCATGCA_site870],9.93 ± 0.13
5,GTATAATATTCATATTCACACATTAAAATATATTTA [CACACA_site4879],9.85 ± 0.042
6,TAAAAATATATTATATGTACGTATAACAATGTATGA [XGTACX_site8606],11.4 ± 0.85
7,TATAGATGTGGTTTATGTACATACTATAAAAAATCA [XGTACX_site1400],11.4 ± 0.64
8,TTATATATATATATATAATATATATATATTTAAATA [XGTACX_negctrl_site453],9.435 ± 0.049
9,TACACCTGCACGATTGCACACAAATATGTTTTGAAG [CACACA_site8656],10.18 ± 0.071
10,TTATTATTAAAACACACACACAAAAAAAAAAAAAAA [CACACA_site1480],9.83 ± 0.4
11,AAAAAAAAAAAAAAAACACACATGTATAATATAATA [CACACA_site2209],10.2 ± 0.18
12,AAGGACAACAAACAAACACACACAAAAAAAAAATAA [CACACA_site9263],10.2 ± 0.29
13,AAGAATATAATCTTCACACATATATATATATATATA [CACACA_site5927],9.96 ± 0.43
14,ATAATATATATATTATGTACATATAAATTTTTTTTT [XGTACX_site5826],11.2 ± 0.69
15,AAATATTTTTTAATGTGTACATAGAACATATATATA [XGTACX_site3136],11.4 ± 0.91
16,TATATACCTATATATACACACAAATACATAAGCTTC [CACACA_site1369],10.02 ± 0.042
17,TAATTATATGGATACACACACATACATTTACATAAC [CACACA_site5744],10.4 ± 0.26
18,TTTTTTAAAAAACAAACACACACGTAGAAAAAAAAA [CACACA_site826],10.4 ± 0.25
19,AGTATACACAAACACACACACACAAAAAAAAAAAAA [CACACA_site8036],10 ± 0.48
20,TCTACAAAATTATCATGTACATATTATTATAATTAT [XGTACX_site6585],11.1 ± 0.67
